# The other results are listed elsewhere or left out.
# B1: Flo5 (Saccharomyces cerevisiae), P38894 (protein)
# chain: MGSSHHHHHHSSGLVPRGSHMSGATEACLPAGQRKSGMNINFYQYSLKDSSTYSNAAYMAYGYASKTKLGSVGGQTDISIDYNIPCVSSSGTFPCPQEDSYGNWGCKGMGACSNSQGIAYWSTDLFGFYTTPTNVTLEMTGYFLPPQTGSYTFSFATVDDSAILSVGGSIAFECCAQEQPPITSTNFTINGIKPWDGSLPDNITGTVYMYAGYYYPLKVVYSNAVSWGTLPISVELPDGTTVSDNFEGYVYSFDDDLSQSNCTIPDPSIH
# Experiments:
# Test in all cases: glycan array binding signal (z-score within array); higher = stronger binding
# Settings in all cases: glycan notation: IUPAC condensed, linker removed
# [1] = target: Gal(b1-4)GlcNAc(a1-6)Gal(b1-4)GlcNAc
# Outline: (§1)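 The binding signal is a Z-score computed within each array. Data were drawn from 3228 arrays in the Consortium for Functional Glycomics database, restricted to those with a known protein sequence. Scores were averaged over arrays of the same protein sequence at different concentrations or buffers, and over linkers, and negative values can be taken as non-binding.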
# [2] = target: Gal(b1-4)GlcNAc(b1-2)Man(a1-3)Man(b1-4)GlcNAc(b1-4)GlcNAc
# Outline: as §1
# [3] = target: Gal(b1-4)GlcNAc(b1-2)Man(a1-3)[Gal(b1-4)GlcNAc(b1-2)Man(a1-6)]Man(b1-4)GlcNAc(b1-4)GlcNAc
# Outline: as §1
# [4] = target: Gal(b1-4)GlcNAc(b1-2)Man(a1-3)[Gal(b1-4)GlcNAc(b1-2)Man(a1-6)]Man(b1-4)GlcNAc(b1-4)[Fuc(a1-6)]GlcNAc
# Outline: as §1
# [5] = target: Gal(b1-4)GlcNAc(b1-2)Man(a1-3)[Man(a1-6)]Man(b1-4)GlcNAc(b1-4)GlcNAc
# Outline: as §1
# [6] = target: Gal(b1-4)GlcNAc(b1-2)Man(a1-6)Man(b1-4)GlcNAc(b1-4)GlcNAc
# Outline: as §1
# [7] = target: Gal(b1-4)GlcNAc(b1-2)Man(a1-6)[Man(a1-3)]Man(b1-4)GlcNAc(b1-4)GlcNAc
# Outline: as §1
# [8] = target: Gal(b1-4)GlcNAc(b1-2)[Gal(b1-4)GlcNAc(b1-4)]Man(a1-3)[Gal(b1-4)GlcNAc(b1-2)Man(a1-6)]Man(b1-4)GlcNAc(b1-4)GlcNAc
# Outline: as §1
# [9] = target: Gal(b1-4)GlcNAc(b1-3)Gal(b1-3)GlcNAc
# Outline: as §1
# [10] = target: Gal(b1-4)GlcNAc(b1-3)Gal(b1-4)Glc
# Outline: as §1
# [11] = target: Gal(b1-4)GlcNAc(b1-3)Gal(b1-4)GlcNAc
# Outline: as §1
# [12] = target: Gal(b1-4)GlcNAc(b1-3)Gal(b1-4)GlcNAc(b1-3)Gal(b1-4)GlcNAc
# Outline: as §1
# [13] = target: Gal(b1-4)GlcNAc(b1-3)Gal(b1-4)[Fuc(a1-3)]GlcNAc(b1-3)Gal(b1-4)[Fuc(a1-3)]GlcNAc
# Outline: as §1
# [14] = target: Gal(b1-4)GlcNAc(b1-3)GalNAc
# Outline: as §1
# [15] = target: Gal(b1-4)GlcNAc(b1-3)[Gal(b1-4)GlcNAc(b1-6)]Gal(b1-4)GlcNAc
# Outline: as §1
# [16] = target: Gal(b1-4)GlcNAc(b1-3)[GlcNAc(b1-6)]Gal(b1-4)GlcNAc
# Outline: as §1
# [17] = target: Gal(b1-4)GlcNAc(b1-6)Gal(b1-4)GlcNAc
# Outline: as §1
# [18] = target: Gal(b1-4)GlcNAc(b1-6)Gal(b1-4)GlcNAc(b1-6)GalNAc
# Outline: as §1
# [19] = target: Gal(b1-4)GlcNAc(b1-6)GalNAc
# Outline: as §1
# [20] = target: Gal(b1-4)GlcNAc(b1-6)[Gal(b1-3)]GalNAc
# Outline: as §1
# Gal3S(b1-3)GalNAc = target: Gal3S(b1-3)GalNAc
# Outline: as §1
# Gal3S(b1-3)GlcNAc = target: Gal3S(b1-3)GlcNAc
# Outline: as §1
# [21] = target: Gal3S(b1-3)[Fuc(a1-4)]GlcNAc
# Outline: as §1
# Gal3S(b1-4)Glc = target: Gal3S(b1-4)Glc
# Outline: as §1
# Gal3S(b1-4)Glc6S = target: Gal3S(b1-4)Glc6S
# Outline: as §1
# Gal3S(b1-4)GlcNAc = target: Gal3S(b1-4)GlcNAc
# Outline: as §1
# Gal3S(b1-4)GlcNAc6S = target: Gal3S(b1-4)GlcNAc6S
# Outline: as §1
# [22] = target: Gal3S(b1-4)[Fuc(a1-3)]Glc
# Outline: as §1
# Gal3S4S(b1-4)GlcNAc = target: Gal3S4S(b1-4)GlcNAc
# Outline: as §1
# Gal3S6S(b1-4)GlcNAc = target: Gal3S6S(b1-4)GlcNAc
# Outline: as §1
# Gal3S6S(b1-4)GlcNAc6S = target: Gal3S6S(b1-4)GlcNAc6S
# Outline: as §1
# Gal4S(b1-4)GlcNAc = target: Gal4S(b1-4)GlcNAc
# Outline: as §1
# Gal4S6S(b1-4)GlcNAc = target: Gal4S6S(b1-4)GlcNAc
# Outline: as §1
# Gal6S(b1-4)Glc = target: Gal6S(b1-4)Glc
# Outline: as §1
# Gal6S(b1-4)Glc6S = target: Gal6S(b1-4)Glc6S
# Outline: as §1
# Gal6S(b1-4)GlcNAc = target: Gal6S(b1-4)GlcNAc
# Outline: as §1
# Gal6S(b1-4)GlcNAc6S = target: Gal6S(b1-4)GlcNAc6S
# Outline: as §1
binder,measurement,setting,value
B1,glycan array binding signal (z-score),[1],0.26
same,glycan array binding signal (z-score),[2],-0.194
same,glycan array binding signal (z-score),[3],0.367
same,glycan array binding signal (z-score),[4],-0.238
same,glycan array binding signal (z-score),[5],-0.202
same,glycan array binding signal (z-score),[6],-0.044
same,glycan array binding signal (z-score),[7],-0.169
same,glycan array binding signal (z-score),[8],-0.059
same,glycan array binding signal (z-score),[9],0.114
same,glycan array binding signal (z-score),[10],-0.17
same,glycan array binding signal (z-score),[11],-0.181
same,glycan array binding signal (z-score),[12],-0.063
same,glycan array binding signal (z-score),[13],-0.174
same,glycan array binding signal (z-score),[14],-0.188
same,glycan array binding signal (z-score),[15],-0.241
same,glycan array binding signal (z-score),[16],-0.126
same,glycan array binding signal (z-score),[17],-0.233
same,glycan array binding signal (z-score),[18],-0.143
same,glycan array binding signal (z-score),[19],-0.219
same,glycan array binding signal (z-score),[20],-0.148
same,glycan array binding signal (z-score),Gal3S(b1-3)GalNAc,-0.17
same,glycan array binding signal (z-score),Gal3S(b1-3)GlcNAc,0.037
same,glycan array binding signal (z-score),[21],-0.224
same,glycan array binding signal (z-score),Gal3S(b1-4)Glc,0.161
same,glycan array binding signal (z-score),Gal3S(b1-4)Glc6S,8.31
same,glycan array binding signal (z-score),Gal3S(b1-4)GlcNAc,-0.098
same,glycan array binding signal (z-score),Gal3S(b1-4)GlcNAc6S,0.044
same,glycan array binding signal (z-score),[22],-0.104
same,glycan array binding signal (z-score),Gal3S4S(b1-4)GlcNAc,-0.198
same,glycan array binding signal (z-score),Gal3S6S(b1-4)GlcNAc,-0.031
same,glycan array binding signal (z-score),Gal3S6S(b1-4)GlcNAc6S,0.137
same,glycan array binding signal (z-score),Gal4S(b1-4)GlcNAc,1.47
same,glycan array binding signal (z-score),Gal4S6S(b1-4)GlcNAc,0.123
same,glycan array binding signal (z-score),Gal6S(b1-4)Glc,-0.082
same,glycan array binding signal (z-score),Gal6S(b1-4)Glc6S,0.022
same,glycan array binding signal (z-score),Gal6S(b1-4)GlcNAc,-0.174
same,glycan array binding signal (z-score),Gal6S(b1-4)GlcNAc6S,0.082

# — the supplement of paper PMC8728848
